This passage reports cell viability results from the supplement of paper PMC6206098.

One data set deals with M565. Nature of the data set: cell viability relative to lipid-only control; higher = less toxic. Conditions: concentration: 10 nM; 96 h; Mus musculus.
The next data set deals with HeyA8. The description is as above. Conditions: concentration: 10 nM; 96 h; Homo sapiens.
Another data set deals with H460. The data set is described as above. The settings on record: concentration: 10 nM; 96 h; Homo sapiens.
Another data set relates to 3LL. Nature of the data set: cell viability relative to siNT1 control; HeyA8 human ovarian and H460 human lung cancer; M565 mouse liver and 3LL mouse lung cancer; siNT1 is a non-toxic control siRNA; higher = less toxic. The settings on record: concentration: 10 nM; 96 h; Mus musculus.

± gives the uncertainty stated by the source. Shown are siRNA guide strands that differ only in the seed, positions 2 to 7.
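Throughout, for cell viability relative to lipid-only control: reverse lipid transfection in 384-well plates, in triplicate, of duplexes on a non-toxic 19mer backbone with passenger strand 2′-O-methylated at positions 1 and 2, luminescence viability read-out.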
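Throughout, for cell viability relative to siNT1 control: Luminescence-based viability of cells reverse transfected in 384-well plates with lipid-complexed siRNAs built on a non-toxic 19mer backbone whose passenger strand carries 2′-O-methyl groups at positions 1 and 2, triplicates.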

The term cell viability denotes a read-out of living cells in per cent, often relative to untreated cells. Take UAUGGCCACAUGUAAACCAAA: the cell viability in the data set on M565 came to 11.9 ± 2.7%; in the data set on HeyA8 it was 83.6 ± 3.7%; in the data set on H460 it was 52.4 ± 7.1%; in the data set on 3LL, 37 ± 3.9%.

As for UAAUGAUACAUGUAAACCAAA, the cell viability with M565 turned out to be 79.3 ± 6.5%; in the data set with HeyA8, 71.3 ± 3.1%; in the data set with H460, 70.2 ± 3.6%; in the data set on 3LL, 43.7 ± 3.6%.

On to UUUGUGUACAUGUAAACCAAA, for which the cell viability in the data set with M565 stood at 69 ± 5.5%; with HeyA8, 63.6 ± 1.1%; in the data set with H460, 73 ± 11%; in the data set with 3LL it was 77.7 ± 5.5%.

As for UACGAGAACAUGUAAACCAAA, the cell viability is 78.2 ± 14% with M565, 86.7 ± 8.4% with HeyA8, 70.3 ± 13% in the data set on H460 and 84.9 ± 12% in the data set on 3LL.

Regarding UUAUCCCACAUGUAAACCAAA, the cell viability with M565 was 42.9 ± 6%; with HeyA8, 6.66 ± 1.4%; in the data set with H460 it was 19.3 ± 0.95%; in the data set on 3LL, 2.65 ± 0.67%.

With UAAGAACACAUGUAAACCAAA, the cell viability was 70.7 ± 3.7% in the data set on M565, 75 ± 5.5% in the data set on HeyA8, 63.8 ± 4.6% in the data set on H460 and 82.2 ± 11% in the data set on 3LL.

Regarding UGGUGAUACAUGUAAACCAAA, the cell viability in the data set on M565 was found to be 36.2 ± 9.5%; with HeyA8, 34.6 ± 4.7%; in the data set on H460, 41.5 ± 5.6%; in the data set on 3LL, 26.4 ± 5%.

Regarding UUGCGAUACAUGUAAACCAAA, the cell viability in the data set on M565 was 56.9 ± 16%; in the data set on HeyA8, 91.1 ± 13%; in the data set on H460, 45.5 ± 0.98%; with 3LL, 44.5 ± 3.6%.

Regarding UACCAGAACAUGUAAACCAAA, the cell viability in the data set with M565 is 34.9 ± 8.5%; in the data set with HeyA8, 83.6 ± 5.9%; with H460 it was 78.7 ± 6.3%; in the data set on 3LL, 78.4 ± 2.5%.

As for UGCGGUUACAUGUAAACCAAA, the cell viability with M565 came out at 20.6 ± 7.1%; in the data set on HeyA8, 5.08 ± 0.89%; in the data set on H460, 38.8 ± 2.4%; in the data set with 3LL, 74.3 ± 5.1%.

For the sequence UAUCCUUACAUGUAAACCAAA, the cell viability stood at 90.4 ± 10% with M565, 24.8 ± 4.9% in the data set on HeyA8, 60.5 ± 10% in the data set on H460 and 76.7 ± 13% with 3LL.

For the sequence UACCCCUACAUGUAAACCAAA, the cell viability was 25.1 ± 3% with M565, 25.2 ± 3.5% in the data set with HeyA8, 23 ± 1.3% with H460 and 20 ± 5.4% with 3LL.

On to UUUAACUACAUGUAAACCAAA, for which the cell viability in the data set on M565 turned out to be 75.3 ± 1.5%; in the data set on HeyA8, 83.4 ± 8.8%; in the data set with H460, 73.3 ± 4.1%; in the data set with 3LL, 80.8 ± 4.9%.

For UAGGUGUACAUGUAAACCAAA, the cell viability came to 9.32 ± 1.9% with M565, 54.1 ± 4.8% in the data set on HeyA8, 59.5 ± 6.1% in the data set with H460 and 50.7 ± 13% in the data set on 3LL.

UCACCCAACAUGUAAACCAAA: the cell viability turned out to be 50.8 ± 5.2% in the data set on M565, 71 ± 1.9% in the data set with HeyA8, 39 ± 1.2% with H460 and 76 ± 16% with 3LL.

Consider UGCGAGAACAUGUAAACCAAA, for which the cell viability in the data set on M565 turned out to be 56.8 ± 1%; with HeyA8, 75.3 ± 5.9%; with H460, 88.5 ± 7.6%; in the data set with 3LL it was 87.4 ± 10%.

With UAAAAGAACAUGUAAACCAAA, the cell viability was determined as 91.4 ± 13% in the data set on M565, 87.4 ± 1.2% in the data set with HeyA8, 70.8 ± 4.4% with H460 and 110 ± 14% in the data set with 3LL.

Take UUCGAGGACAUGUAAACCAAA: the cell viability in the data set on M565 amounted to 80.9 ± 12%; with HeyA8, 63.3 ± 6.2%; in the data set on H460, 62.9 ± 5.6%; with 3LL, 60.1 ± 9.6%.

For UUGGCGUACAUGUAAACCAAA, the cell viability in the data set with M565 stood at 67.8 ± 9.1%; in the data set on HeyA8, 74.1 ± 4.9%; with H460, 99.9 ± 10%; in the data set on 3LL, 69.3 ± 13%.

As for UUGUGUAACAUGUAAACCAAA, the cell viability in the data set on M565 was determined as 67.9 ± 3.2%; in the data set on HeyA8 it was 70.4 ± 3.6%; in the data set with H460 it was 75 ± 15%; with 3LL it was 87.7 ± 5.2%.

On to UCUUAACACAUGUAAACCAAA, for which the cell viability in the data set on M565 is 84.2 ± 22%; in the data set with HeyA8, 91.4 ± 12%; in the data set with H460, 72.7 ± 4.2%; with 3LL, 89.2 ± 13%.

For the sequence UAGCCUGACAUGUAAACCAAA, the cell viability was 65.2 ± 2.1% in the data set on M565, 24.2 ± 2.1% in the data set with HeyA8, 64.3 ± 12% with H460 and 58.8 ± 11% in the data set on 3LL.

As to UCCCUGUACAUGUAAACCAAA, the cell viability in the data set on M565 was found to be 37.4 ± 13%; in the data set with HeyA8, 51 ± 3.7%; in the data set with H460, 60.9 ± 14%; in the data set on 3LL it was 70.3 ± 15%.

UGGGUUGACAUGUAAACCAAA: the cell viability with M565 came to 37.5 ± 10%; in the data set with HeyA8, 13.2 ± 1.7%; in the data set on H460, 31.3 ± 4.7%; with 3LL it was 77.4 ± 4%.

Regarding UUUAGUCACAUGUAAACCAAA, the cell viability in the data set on M565 is 89 ± 13%; with HeyA8 it was 77.3 ± 8%; with H460, 78.4 ± 12%; in the data set with 3LL, 90.8 ± 3.5%.

For the sequence UUGAGAGACAUGUAAACCAAA, the cell viability in the data set on M565 came to 33.5 ± 6.9%; with HeyA8, 99.2 ± 7.2%; in the data set on H460 it was 92.4 ± 14%; in the data set on 3LL it was 85.2 ± 6.9%.

As for UGACCCGACAUGUAAACCAAA, the cell viability in the data set on M565 worked out at 36.4 ± 4.3%; in the data set with HeyA8 it was 74.7 ± 4%; with H460, 50.9 ± 4%; with 3LL, 55.7 ± 6.7%.

For UGCUACUACAUGUAAACCAAA, the cell viability is 33.7 ± 2% in the data set on M565, 17.4 ± 0.61% in the data set with HeyA8, 12.6 ± 0.96% with H460 and 28.3 ± 6.9% with 3LL.

UUCAGUCACAUGUAAACCAAA: the cell viability in the data set with M565 was found to be 34.8 ± 3.2%; in the data set with HeyA8, 41.9 ± 3.6%; with H460, 56.8 ± 1.4%; in the data set with 3LL, 29.8 ± 1.4%.

For UUGAGCUACAUGUAAACCAAA, the cell viability with M565 was 11.9 ± 4.3%; in the data set on HeyA8, 69.5 ± 6.9%; in the data set with H460 it was 34.6 ± 2.1%; with 3LL, 5.56 ± 2.1%.
